SMILES strings stand for the structures. Hit rate of the full screen: of about 150,000 compounds, about 540 (0.36%) showed an effect of 50% or more. This is one part of the list.

The assay concerns Plasmodium falciparum. In words: Primary screen in NF54 nanoGlo assay, in single point, at 2uM, 72h; a lower Z score goes with more inhibition. The class given is functional, Erythrocyte. Conditions: timepoint 72 hour.
Regarding `CCCNC(=O)CNC(=O)c1ccsc1`, the “% Inhibition” value is -6% and the Z score came out at 1.17.
Taken in the same sequence, the figures for `O=C(Cc1cccc(Br)c1)NCc1cccc(-c2ncc[nH]2)c1` were -8% and 1.26.
Consider `Cc1cc(C(=O)N[C@H]2CCOC[C@H]2C2CCOCC2)nc(C)n1`, for which the “% Inhibition” value is recorded as -7% and the Z score amounted to 1.25.
The like results for `COc1ccc(NC(=O)Cn2c(C(F)(F)F)nc3cc4c(cc32)OCCCO4)cc1` were, in that order, 35% and -5.09.
Take `CC(CNC(=O)C1CCS(=O)(=O)C1)CN(C)C(=O)OC(C)(C)C` (stereo unspecified): the “% Inhibition” value is 1% and the Z score is on record as -0.13.
As for `Nc1c(-c2ccccc2)cnn1-c1nc2ccccc2s1`, the “% Inhibition” value worked out at 5% and the Z score was -0.58.
As to `COc1ccccc1N1CCN(C(=O)c2nnn(-c3ccc(C)c(Cl)c3)c2C)CC1`, the “% Inhibition” value amounted to 32% and the Z score is reported as -3.57.
Regarding `COc1cnc(-c2cccc(C(F)(F)F)c2)nc1Oc1cccc(C(F)(F)F)c1`, the “% Inhibition” value is -10% and the Z score is listed as 1.16.
Consider `Cc1nn(C)cc1-c1n[nH]cc1Br`, for which the “% Inhibition” value is on record as 36% and the Z score is -4.11.
Turning to `Cc1nn(S(=O)(=O)c2cccc3nsnc23)c(C)c1Cl`, the “% Inhibition” value was -4% and the Z score was determined as 0.6.
As to `CC(=O)N1CCC[C@H](NC(=O)c2ccc(-c3ccc(C#N)c(Cl)c3)cc2)C1`, the “% Inhibition” value is -15% and the Z score is reported as 1.35.
For `CCCCn1nc(-c2ccncc2)nc1[C@H](CC)n1cccn1`, the “% Inhibition” value is reported as -10% and the Z score was 1.48.
`CC1=Nc2ccccc2C12CCN(C(=O)Nc1cnn(C)c1)CC2`: the “% Inhibition” value was found to be 12% and the Z score is listed as -2.23.
In the case of `CCCN1C(=O)CC[C@@H]2CN(C(=O)c3ccc4ccccc4n3)CC[C@@H]21`, the “% Inhibition” value is reported as -12% and the Z score worked out at 2.42.
Turning to `O=C(C[C@H]1CCS(=O)(=O)C1)NCc1ccc2c(c1)OCO2`, the “% Inhibition” value is -7% and the Z score is 1.01.
In the case of `CC1=NN(S(=O)(=O)c2ccc(Cl)cc2)[C@@](O)(C(F)F)C1`, the “% Inhibition” value was -41% and the Z score came out at 4.86.
Consider `COc1cc(-c2nccn2CCc2nc3c(s2)CCC3)cc2c1OCO2`, for which the “% Inhibition” value is -1% and the Z score came to 0.17.
For the compound `CCn1ccnc1CN1CC[C@@]2(CCCN(Cc3cccc(F)c3F)C2=O)C1`, the “% Inhibition” value is recorded as -10% and the Z score was determined as 1.38.
Consider `Cc1cc(N2C(=O)C[C@H](N3CCN(C(c4ccccc4)c4ccccc4)CC3)C2=O)no1`, for which the “% Inhibition” value is on record as 1% and the Z score is recorded as -0.13.
As to `Cc1ccc(-c2cnc3nc(C)cnc3n2)c(-n2cccn2)c1`, the “% Inhibition” value is on record as -11% and the Z score came to 1.45.
As to `CC1CCC(NC(=O)C2CCC(CNS(=O)(=O)c3ccc4c(c3)C(C)(C)C(=O)N4C)CC2)CC1` (stereo unspecified), the “% Inhibition” value is listed as -2% and the Z score was determined as 0.16.
Taken in the same sequence, the figures for `Cc1ccc2sc(N(Cc3ccncc3)C(=O)Cc3ccc(F)cc3)nc2c1C` were 0% and 0.01.
As for `COC(=O)N[C@@H](C)C(=O)N(C)Cc1nc(C)c[nH]1`, the “% Inhibition” value is recorded as -9% and the Z score is reported as 1.21.
The like results for `Cn1ccnc1N1CCN(c2ccc(S(=O)(=O)C(F)F)cc2)CC1` were, in that order, -7% and 1.14.
As to `CC(C)[C@H](NC(=O)NC1CC12CCOCC2)C(F)(F)F` (stereo partly specified), the “% Inhibition” value is -7% and the Z score was 0.67.
For `C[C@@H]1CN(CCN(C)C(=O)c2ccc(-c3ncn(C)n3)cc2)C[C@H](C)O1`, the “% Inhibition” value is given as -31% and the Z score was 3.69.
The like results for `COc1ccccc1C/N=C1\C(c2cc(OC)c(OC)c(OC)c2)=Nc2ncnn21` were, in that order, -5% and 0.65.
On to `COc1ccc2c(ccn2CC(=O)N2CCCN(C(C)=O)CC2)c1`, for which the “% Inhibition” value was -12% and the Z score is listed as 1.96.
Regarding `CC(C)Cn1[nH]c(CC(=O)Nc2cncc3c2CCCC3)cc1=O`, the “% Inhibition” value is given as -6% and the Z score was determined as 1.02.
As to `CS(=O)(=O)N[C@H]1[C@H](NC(=O)CCc2ccsc2)[C@@H]2CCO[C@@H]21`, the “% Inhibition” value worked out at 1% and the Z score is given as -0.08.
As to `Cc1cc(C)c2nccc(NC[C@@](C)(O)CCCO)c2c1`, the “% Inhibition” value is -10% and the Z score is listed as 1.32.
The like results for `NC(=O)Cc1nc(CCCn2cccn2)n(CC(F)(F)F)n1` were, in that order, -10% and 1.91.
For the compound `Cc1cnc(C)c(NCCCN2CCCC2=O)n1`, the “% Inhibition” value was -6% and the Z score was 1.23.
Taken in the same sequence, the figures for `CC1=NN(c2ccccc2)C(=O)C1(N1CCOCC1)N1CCOCC1` were 26% and -2.96.
In the case of `Cc1csc(COC(=O)c2cn(C)nc2C(C)(C)C)n1`, the “% Inhibition” value is reported as -13% and the Z score was 1.48.
The like results for `O=S(=O)(N1CCOCC1)N1CC2CCCCC2C1` (stereo unspecified) were, in that order, -13% and 1.36.
In the case of `C[C@H](NC(=O)CN1C(=O)COc2ccc(Cl)cc21)c1cccnc1`, the “% Inhibition” value is -4% and the Z score is on record as 0.6.
As for `CC[C@@H](CNC(=O)C1CCCC1)N1CCCC1`, the “% Inhibition” value is recorded as 4% and the Z score is -0.54.
As for `O=C(NC[C@H]1CCOC1)C1CCN(S(=O)(=O)c2ccc3c(c2)CCC3)CC1`, the “% Inhibition” value amounted to 15% and the Z score is given as -1.96.
The like results for `COC[C@H](NC(=O)c1csnc1C)c1ccc(Cl)cc1` were, in that order, -4% and 0.43.
The like results for `Fc1ccc(COc2ccc(CNc3nccs3)cc2)c(Cl)c1` were, in that order, 32% and -3.58.
In the case of `CC(C(=O)N1CCCCC1)N1CCC(c2ccccc2)C1` (stereo unspecified), the “% Inhibition” value was -10% and the Z score worked out at 1.4.
For the compound `CCCC(C)(C)NC(=O)c1cc(OC)c(OC)c(OC)c1`, the “% Inhibition” value is on record as -10% and the Z score worked out at 1.42.
The like results for `CC1C(NCC2CCN(C3CC3)C2)CC1c1ccccc1` (stereo unspecified) were, in that order, -2% and 0.17.
Turning to `Cc1ccc(C2=C[C@@H](c3ccccc3)n3nnnc3N2CC(=O)Nc2ccc(C)cc2C)cc1`, the “% Inhibition” value is on record as -9% and the Z score came out at 0.93.
As for `CCNc1nc(C(N)=O)c(NC(=O)c2ccccc2Br)s1`, the “% Inhibition” value is reported as -16% and the Z score was found to be 2.17.
The like results for `O=C(CC(c1ccccc1)c1ccccc1)N1CCC[C@H](Oc2ccncc2)C1` were, in that order, 4% and -0.6.
`CC[C@H]1CN(S(=O)(=O)c2c(C)noc2C)CC[C@H]1CC(=O)N1CCC(C(=O)OC)CC1`: the “% Inhibition” value is on record as 33% and the Z score is reported as -3.83.
Turning to `CCC(CC)C(=O)Nc1cc(Br)c(O)c(Br)c1`, the “% Inhibition” value stood at 13% and the Z score is reported as -1.6.
In the case of `Cn1cc(CN2CCC(C(=O)NCc3ccccc3F)CC2)c2cc(Cl)ccc21`, the “% Inhibition” value is -11% and the Z score was determined as 1.4.
In the case of `O=C(Nc1nnn[nH]1)c1ccc(OCC2CCCCC2)cc1`, the “% Inhibition” value was -6% and the Z score is given as 0.88.
For `COC(=O)C1(CNC(=O)C2CCC(F)(F)CC2)CCCCC1`, the “% Inhibition” value is -6% and the Z score came out at 1.04.
Regarding `CC(C)c1nc(CC(=O)N2CC3CCCC(C3)C2)cs1`, the “% Inhibition” value is listed as 3% and the Z score is reported as -0.31.
The like results for `Cc1noc(C)c1CN[C@H]1[C@H](O)[C@@H](n2cnc3ccccc32)[C@@H]2OC[C@H]1O2` were, in that order, 4% and -0.69.
As to `CC1(C)CCc2onc(CNC(=O)C[C@H]3CS(=O)(=O)c4ccccc4O3)c2C1`, the “% Inhibition” value stood at 28% and the Z score is given as -3.12.
With `Cc1cc(C)nc(N/C(=N/c2ccc(CC(=O)OC(C)C)cc2)NS(=O)(=O)c2ccc(Cl)cc2)n1`, the “% Inhibition” value came out at 2% and the Z score was -0.22.
On to `Cc1c(NC(=O)c2ccc3ccccc3n2)cccc1-c1nnc2n1CCCCC2`, for which the “% Inhibition” value is -4% and the Z score is reported as 0.52.
Turning to `COC[C@@H](c1ccnn1C)n1cnc(-c2ccccc2)c1C=C(C)C`, the “% Inhibition” value is given as -4% and the Z score worked out at 0.71.
With `CN(C)C(=O)Cn1cnc(NC(=O)c2cn(C)nc2-c2ccco2)n1`, the “% Inhibition” value was -9% and the Z score came out at 1.75.
On to `COc1ccc(CS(=O)(=O)CCC(=O)NC(C)(C)C)cc1F`, for which the “% Inhibition” value is recorded as -8% and the Z score came to 1.06.
The like results for `CCCN1C[C@]23C=C[C@H](O2)[C@H](C(=O)NCc2cnn4cccnc24)[C@@H]3C1=O` were, in that order, -3% and 0.57.
Take `C[C@@H](C(=O)NCCOc1ccccc1)N1C(=O)NC2(CCCC2)C1=O`: the “% Inhibition” value is given as -12% and the Z score is 1.57.
Take `COc1ccc2c(c1)N1CCN(Cc3ccc(F)cc3)CC1C(C(=O)Nc1ccc(F)cc1)C2` (stereo unspecified): the “% Inhibition” value is -4% and the Z score was 0.45.
In the case of `Cc1n[nH]c(C)c1CNC(=O)N1CCNC(=O)[C@@H]1c1ccc(F)cc1`, the “% Inhibition” value is on record as -10% and the Z score is on record as 1.59.
`O=C(O)C1Cc2c([nH]c3ccccc23)C(c2c(O)ccc3ccccc23)N1` (stereo unspecified): the “% Inhibition” value was 4% and the Z score was -0.34.
Consider `C#CCN1CCCC1C(O)C(F)(F)F` (stereo unspecified), for which the “% Inhibition” value was determined as 6% and the Z score is given as -0.77.
Regarding `Cc1cc(C)nc(NC(=O)c2occ3c2CCC3)n1`, the “% Inhibition” value is reported as -3% and the Z score was 0.33.
Taken in the same sequence, the figures for `COc1cccc(C(=O)NCC(=O)N2CC=C(c3ccccc3)C2)c1` were 31% and -1.08.
`Cc1nc(CCC(=O)N2CCC[C@@]3(CCC(=O)N(CC4CC4)C3)C2)n[nH]1`: the “% Inhibition” value was -6% and the Z score came out at 0.61.
The like results for `COc1ccccc1CN1C(=O)c2ccc(-c3ccccc3)n2C[C@@]1(C)C(=O)NC1CCCCC1` were, in that order, -19% and 3.15.
Taken in the same sequence, the figures for `CCCCN(CCO)C(=O)Nc1ccc(OC)c(Cl)c1` were -11% and 1.48.
On to `O=C(c1cccnc1O)N1CC[C@@]2(CCCN(Cc3ccc(F)c(F)c3)C2=O)C1`, for which the “% Inhibition” value was 2% and the Z score is recorded as -0.34.
With `CCOC(=O)N1CCN(C(=N)C(F)(F)F)CC1`, the “% Inhibition” value was determined as 7% and the Z score is given as -1.12.
Turning to `CC(C)C(NC(=O)NC1CCC(=O)NC1C)C1(CO)CCCC1` (stereo unspecified), the “% Inhibition” value is recorded as -8% and the Z score turned out to be 1.29.
On to `CC1=C[C@@H](CNC(=O)c2ccccn2)[C@H](C(C)C)C[C@H]1CC(=O)NCCN1CCOCC1`, for which the “% Inhibition” value turned out to be 19% and the Z score was -2.2.
As for `O=C(CNC1CCCCC1)N1CCc2ccccc2C1`, the “% Inhibition” value is on record as -1% and the Z score stood at 0.09.
With `Cc1n[nH]c([C@H]2CCCN(Cc3nc4ncccn4n3)C2)n1`, the “% Inhibition” value is recorded as -6% and the Z score is 1.23.
Consider `CCC(C)[C@@H](NC(=O)Nc1cc(C)ccc1C)C(=O)OC` (stereo partly specified), for which the “% Inhibition” value was determined as 1% and the Z score was -0.1.
Taken in the same sequence, the figures for `Cc1cccn2c(CNc3ccc(C(=O)NCCO)c(Cl)c3)cnc12` were -8% and 0.74.
For `Cc1csc2c(Oc3cncc(C(N)=O)c3)ncnc12`, the “% Inhibition” value is -1% and the Z score stood at 0.15.
Take `COC(=O)CN1CCC2(CC1)C[C@@H](c1ccccc1)C(=O)N(C)C2`: the “% Inhibition” value is on record as 9% and the Z score is listed as -1.26.
As for `CCCCOCCN(C(=O)CN(C)S(C)(=O)=O)c1ccc(Br)cc1`, the “% Inhibition” value was found to be 1% and the Z score is reported as -0.2.
As to `Cc1cc(C)c(S(=O)(=O)N2CC(OCc3ccccc3Cl)C2)cc1C`, the “% Inhibition” value is given as -17% and the Z score is recorded as 3.24.

In general, % Inhibition refers to the change of the read-out against control, counted positive when it falls.

These data come from ChEMBL document CHEMBL4888484, “Replenishing the malaria drug discovery pipeline: Screening and hit evaluation of the MMV Hit Generation Library 1 (HGL1) against asexual blood stage Plasmodium falciparum ,using a nano luciferase reporter read-out” (2022).
